Data from PubChem BioAssay AID1461 (National Center for Advancing Translational Sciences (NCATS), 2008).
Among all 220,000 compounds or so, about 2,300 (1%) were called active. Inconclusive means that the source gave no clear call. Such entries were picked first, then a sample of the others. Calls come from the whole dose curve; as a rule, active = well fitted inhibition curve with a large enough effect; inconclusive = small, poorly fitted or top-dose-only effect, or effect the other way; inactive = no such curve, though single readings can be large or run the other way. Potencies of inconclusive entries are left out as doubtful fits.

Target: Neuropeptide S receptor (Homo sapiens) (UniProt Q6W5P4)
Test: qHTS Assay for Antagonists of the Neuropeptide S Receptor: cAMP Signal Transduction; note: nearly all actives have a fitted effect of over 50% in size
Conditions: CHO-NPSR cells, cAMP TR-FRET, antagonist mode; activity change, negative = inhibition: at 38.3 µM (top of the series) unless noted
% is set by controls: 0 for no effect and ±100 for the full control effect; potency is the fitted concentration of half-maximal effect; tags give direction and shape of the fitted curve.

Sequence of UniProt Q6W5P4 (Q6W5P4 whole entry, looked up): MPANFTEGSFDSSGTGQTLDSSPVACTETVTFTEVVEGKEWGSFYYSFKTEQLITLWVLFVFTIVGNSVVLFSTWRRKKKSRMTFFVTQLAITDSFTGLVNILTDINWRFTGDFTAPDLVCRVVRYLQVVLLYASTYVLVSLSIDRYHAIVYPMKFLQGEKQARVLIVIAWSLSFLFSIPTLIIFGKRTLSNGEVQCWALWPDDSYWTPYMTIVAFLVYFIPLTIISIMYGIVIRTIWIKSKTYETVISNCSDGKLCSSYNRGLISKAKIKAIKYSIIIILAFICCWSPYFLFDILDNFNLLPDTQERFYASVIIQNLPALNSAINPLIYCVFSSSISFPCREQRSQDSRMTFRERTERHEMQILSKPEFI

**Q.** How did the Potency turn out when `CCN(Cc1ccccc1)C(c1ccccn1)c1nnnn1C(C)(C)CC` (stereo unspecified) was run?
**A.** inconclusive [inhibitor, partial curve]

**Q.** `Cc1ccc(Oc2cc(C)nc(-c3ccccc3O)n2)cc1` was tested. Which Potency did it give?
**A.** inconclusive [inhibitor, full curve, poor fit]

**Q.** Which Potency does the source give for `COc1cccc(F)c1C(C[N+](=O)[O-])c1c(N)n(C)c(=O)n(C)c1=O` (stereo unspecified) here?
**A.** active: 6.31 µM

**Q.** How did the Potency turn out when `O=C(NCc1ccc2c(c1)OCO2)c1ccc(CN2CCc3ccccc3C2)cc1` was run?
**A.** inconclusive [inhibitor, partial curve]

**Q.** How did the “activity change, negative = inhibition” value turn out when `O=C(NNc1nc2ccccc2nc1C(F)(F)F)c1ccccc1` was run?
**A.** inactive: 7.46% [at 46.1 µM]

**Q.** With `COc1ccc(N2CC(C(=O)NCc3cccnc3)CC2=O)cc1` (stereo unspecified) as the molecule, how does the Potency read?
**A.** inconclusive [activator, single point]

**Q.** `Cc1ccc(Sc2c(C=O)c3ccccc3n2C)cc1` was tested. Which Potency did it give?
**A.** inconclusive [inhibitor, single point]

**Q.** With `O=C(Nc1nc(-c2cccs2)cs1)c1cccc(S(=O)(=O)N2CCCCCC2)c1` as the molecule, how does the Potency read?
**A.** active: 10 µM

**Q.** How did the “activity change, negative = inhibition” value turn out when `Cc1ccc(C)n1-c1cc([N+](=O)[O-])ccc1-n1ccnc1` was run?
**A.** inactive: 5.61%

**Q.** For `Cc1ccc(-c2csc(N3CCC(NS(=O)(=O)c4ccc5c(c4)OCCO5)CC3)n2)cc1`, which Potency is on record?
**A.** inconclusive [inhibitor, single point]

**Q.** Which “activity change, negative = inhibition” value does the source give for `S=C(Nc1ccccc1)Nc1nc2ccccc2n1CCOc1ccccc1` here?
**A.** inactive: -26.4% [at 46.1 µM]

**Q.** For `COc1ccc(-c2nn(-c3ccccc3)cc2/C=N/NS(=O)(=O)c2ccccc2)cc1`, which Potency is on record?
**A.** inconclusive [inhibitor, partial curve]

**Q.** For `FC(F)(F)c1cccc(N2CCN(c3nnnn3-c3ccccc3)CC2)c1`, which Potency is on record?
**A.** inconclusive [inhibitor, single point]

**Q.** How did the “activity change, negative = inhibition” value turn out when `COC(=O)c1sccc1NC(=S)N(C)C1CCCCC1` was run?
**A.** inactive: -47.1%

**Q.** `CNc1ncc(C(=O)c2ccc(F)cc2)s1` was tested. Which “activity change, negative = inhibition” value did it give?
**A.** inactive: -8.48%

**Q.** With `C=CCNC(=O)C(C(=O)OCC)C1CCCCC1` (stereo unspecified) as the molecule, how does the Potency read?
**A.** inconclusive [activator, full curve, poor fit]

**Q.** `Cc1cc(C(=O)OCC(=O)NCc2ccco2)c(C)n1-c1ccc(F)cc1` was tested. Which Potency did it give?
**A.** inconclusive [activator, single point]

**Q.** With `COc1ccc(-c2c3c([nH]c(=S)c2C#N)CCC3)cc1` as the molecule, how does the Potency read?
**A.** active: 1 µM

**Q.** Which “activity change, negative = inhibition” value does the source give for `O=C(CSc1nnc(-c2cnccn2)n1Cc1ccco1)c1ccccc1` here?
**A.** inactive: -13.7% [at 46.1 µM]

**Q.** Which “activity change, negative = inhibition” value does the source give for `COC(=O)Cc1ccc(NC(=S)Nc2ccccn2)cc1` here?
**A.** inactive: 5.77%

**Q.** `O=C(CSc1nc2[nH]ncc2c(=O)n1-c1ccccc1)c1ccc2c(c1)OCCO2` was tested. Which Potency did it give?
**A.** inconclusive [inhibitor, single point]
